Hit rate of the full screen: of about 420,000 compounds, about 64,000 (15%) were called active. Inconclusive means that the source gave no clear call. Such entries were picked first, then a sample of the others. Calls follow the shape of the dose curve; as a rule, active = well fitted inhibition curve with a large enough effect; inconclusive = small, poorly fitted or top-dose-only effect; inactive = flat fitted curve, though single readings scatter. No potency is given beside an inconclusive call; the fits are too rough.
assay: qHTS for Inhibitors of human tyrosyl-DNA phosphodiesterase 1 (TDP1): qHTS in cells in absence of CPT; conditions: DT40 Tdp1-/- hTDP1 cells, no CPT, ATP luminescence, 48 h; activity change, negative = growth inhibition: at 46.2 µM (top of the series) unless noted; also: nearly all actives have a fitted effect of over 55% in size
Procedure, shortened: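 Chicken DT40 Tdp1-/- cells complemented with human TDP1, screened without camptothecin (DMSO vehicle only), 400 cells/well. Compounds pin-transferred, cells incubated at 37 °C for at least 48 hr. Growth read as ATP-dependent luminescence (CellTiter-Glo, 30 min at RT).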
% is scaled to controls: 0 for no effect and ±100 for the full control effect; potency is read from the fitted curve at half-maximal effect; tags tell the direction and shape of the fitted curve.

Row | SMILES | Potency | activity change, negative = growth inhibition
1 | CCCC[C@@H]1CN=C(N)N1CCCC | active: 7.31 µM | –
2 | O=C(Nc1ccc(Br)cc1)c1ccc(F)c(S(=O)(=O)N2CCc3ccccc32)c1 | active: 20.6 µM | –
3 | O=C(NCc1cccs1)C1CCN(C(=O)N2CCOc3ccc(Cl)cc32)CC1 | inconclusive [inhibitor, single point] | –
4 | Cc1cccc(-n2nc3c(c2NC(=O)CCCl)CSC3)c1 | inconclusive [inhibitor, single point] | –
5 | CC1(OC(=O)c2cccs2)C(=O)C=C2C=C(C3CC3)OC=C2C1=O (configuration not stated) | – | inactive: 11.9%
6 | COc1ccc(-n2c(-c3ccc(Cl)cc3Cl)n[nH]c2=S)c(OC)c1 | inconclusive [inhibitor, single point] | –
7 | Cc1ccccc1N=C1Nc2ccccc2N[C@]12C[C@H]1CCCC(=O)N3CC[C@@H](C2)[C@@H]13 | – | inactive: -24%
8 | Cc1ccc(NC(=O)CN(C)CC(=O)Nc2ccccc2-c2ccccc2)cc1 | – | inconclusive: -30.4% [inhibitor]
9 | Cc1ccn2c(CC(C)(C)C)c(-c3ccc(F)cc3)nc2c1 | active: 20.6 µM | –
10 | CN1CC(=O)N2C(c3cccc([N+](=O)[O-])c3)c3[nH]c4ccccc4c3C[C@H]2C1=O (some centres not stated) | active: 1.84 µM | –
11 | COc1ccc(C(O)c2nc(-c3ccc(F)c(Cl)c3)cs2)cc1 (configuration not stated) | inconclusive [inhibitor, single point] | –
12 | COCCNC(C)C(=O)Nc1ccc(Br)cc1 (configuration not stated) | – | inactive: -12.4%
13 | COc1cc(O)c(C(C)=O)c(OC)c1 | inconclusive [inhibitor, single point] | –
14 | CN1CCN(c2ccc(C(F)(F)F)cc2NC(=O)Nc2ccccc2)CC1 | inconclusive [inhibitor, partial curve] | –
15 | Cc1ccccc1-c1cc2c(c3c1ccn3C)C1CCC2O1 (configuration not stated) | inconclusive [inhibitor, single point] | –
16 | O=C(NCC(c1ccco1)N1CCCC1)c1cn(-c2ccccc2)nc1-c1ccc(F)cc1 (configuration not stated) | active: 10.3 µM | –
17 | Cc1cc2cc(C(c3nnnn3CC3CCCO3)N3CCCc4ccccc43)c(=O)[nH]c2cc1C (configuration not stated) | inconclusive [inhibitor, single point] | –
18 | CC(=O)Nc1ccc(S(=O)(=O)NCCC(=O)N2CCN(c3ccccc3Cl)CC2)cc1 | inconclusive [inhibitor, single point] | –
19 | Cc1ccc(S(=O)(=O)C(CNC(=O)C(=O)NCc2ccccc2C)c2cccs2)cc1 (configuration not stated) | inconclusive [inhibitor, single point] | –

Row | SMILES | Potency | activity change, negative = growth inhibition
20 | CC(Oc1cccc(Br)c1)C(=O)NNC(=O)CCNC(=O)c1ccccc1Cl (configuration not stated) | – | inactive: 0.725%
21 | CSc1nc(C)cc(SC(C(C)=O)C(=O)Nc2ccccc2)n1 (configuration not stated) | – | inactive: -1.76%
22 | Cc1ccc(-c2nc3ccccc3s2)cc1NC(=O)c1ccc2c(c1)OCO2 | inconclusive [inhibitor, single point] | –
23 | COc1ccc(-c2nnn(CC(=O)N(Cc3ccccc3Cl)C(C(=O)NCC3CCCO3)c3ccco3)n2)cc1 (configuration not stated) | active: 18.4 µM | –
24 | O=C(c1cnccn1)N1CCC2(CCCN(c3ccccc3)C2)CC1 | inconclusive [inhibitor, single point] | –
25 | c1ccc(CCc2cccnc2)cc1 | – | inactive: 0.0597%
26 | CCOC(=O)C(NC(=O)c1ccc(Cl)cc1Cl)(Nc1ccc(C)cc1)C(F)(F)F (configuration not stated) | active: 16.4 µM | –
27 | CC(OC(=O)c1cccs1)C(=O)NCCc1ccccc1 (configuration not stated) | – | inactive: -0.778%
28 | CC[C@@H](C)[C@H](CN[C@H](CNC)[C@@H](C)O)NCCc1ccc(OC)cc1 | inconclusive [inhibitor, single point] | –
29 | O=C(N/N=C/c1ccc2cccnc2c1)c1nc2ccccc2c(=O)[nH]1 | – | inactive: -21.3%
30 | OC(c1ccc(Cl)cc1)c1ncc(-c2ccc(Cl)cc2)[nH]1 (configuration not stated) | inconclusive [inhibitor, single point] | –
31 | COc1cc(/C=N/Nc2ccc(C(=O)O)cc2)cc(OC)c1OC | – | inactive: -20.5%
32 | Cc1cccc(Cc2cnc(N3C(=N)SC(C)C3=O)s2)c1 (configuration not stated) | active: 18.4 µM | –
33 | Cc1ccc(/C(=N/Nc2nc3ccccc3s2)C2=C(O)c3ccccc3C2=O)cc1 | inconclusive [inhibitor, single point] | –
34 | Cc1onc(-c2ccccc2Cl)c1C(=O)N(Cc1ccc(N(C)C)cc1)C(C)C | inconclusive [inhibitor, single point] | –
35 | NC(=S)N/N=C/c1cn(-c2ccccc2)nc1-c1cccnc1 | active: 2.91 µM | –
36 | COc1ccc(CC(=O)OCC(=O)NNC(=O)c2ccccc2)cc1 | – | inactive: 5.73%
37 | Cc1ccccc1CSc1ccc(-c2ccc3c(c2)OCO3)nn1 | inconclusive [inhibitor, single point] | –

Source: PubChem BioAssay AID686978 (National Center for Advancing Translational Sciences (NCATS), 2013)
